# In PubChem BioAssay AID686978 (National Center for Advancing Translational Sciences (NCATS), 2013):
# Screen size: about 420,000 compounds; about 64,000 (15%) were called active. Inconclusive results, whose numbers are uncertain, are shown with a selection of clear calls. Calls follow the shape of the dose curve; as a rule, active = well fitted inhibition curve with a large enough effect; inconclusive = small, poorly fitted or top-dose-only effect; inactive = flat fitted curve, though single readings scatter. No potency is given beside an inconclusive call; the fits are too rough.
# Test: qHTS for Inhibitors of human tyrosyl-DNA phosphodiesterase 1 (TDP1): qHTS in cells in absence of CPT; also: nearly all actives have a fitted effect of over 55% in size
# Settings: DT40 Tdp1-/- hTDP1 cells, no CPT, ATP luminescence, 48 h; activity change, negative = growth inhibition: at 46.2 µM (top of the series)
# In short: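 Growth kinetics read by CellTiter-Glo luminescence after ≥48 hr at 37 °C. Cells: DT40 Tdp1-/- stably carrying human TDP1, 400 per well, compound exposure in the absence of CPT (DMSO vehicle).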
# % is scaled to controls: 0 for no effect and ±100 for the full control effect; potency is read from the fitted curve at half-maximal effect; tags tell the direction and shape of the fitted curve.
SMILES,Potency,"activity change, negative = growth inhibition"
O=C(/C=C/c1ccccc1)N/C(=C/c1ccccc1)C(=O)Nc1ccccc1O,"inconclusive [inhibitor, single point]",–
Cc1cc(Cl)ccc1OCC(=O)N1CCC(c2nc3ccccc3o2)CC1,active: 16.4 µM,–
O=C1CS/C(=N/N=C/c2ccco2)N1Cc1ccc(F)cc1,–,inactive: -27.4%
Cc1ccc(N(Cc2cc3ccc(C)cc3[nH]c2=O)S(=O)(=O)c2ccccc2)cc1,"inconclusive [inhibitor, partial curve]",–
CC1Cc2cc(/C(O)=C3/C(=O)C(=O)N(CCCN(C)C)C3c3ccncc3)ccc2O1 (centres undefined),"inconclusive [inhibitor, single point]",–
CC(C)=CCC[C@](C)(OC1OC(COC2OCC(O)C(O)C2O)C(O)C(O)C1O)C1CC[C@]2(C)C1C(O)CC1[C@@]3(C)CCC(O[C@@H]4O[C@H](CO)C(O)C(O)C4O[C@@H]4OC(CO)C(O)C(O)C4O)C(C)(C)C3CC[C@]12C (some centres undefined),–,inactive: -15.6%
CCN(C[C@H]1N[C@@](Cc2ccccc2)(C(=O)OC)[C@H]2C(=O)N(Cc3ccccc3)C(=O)[C@@H]12)C(=O)c1ccc(F)cc1,"inconclusive [inhibitor, single point]",–
CCOc1ccccc1N(C)C(=O)c1cc2c(=O)n(CC)c3ccccc3c2s1,active: 20.6 µM,–
COc1cc(Cl)c(C)cc1NC(=O)c1cccc(OC)c1OC,"inconclusive [inhibitor, partial curve, poor fit]",–
COC(=O)c1ccc(NC(=O)C(=O)NCCc2csc(-c3ccc(C(F)(F)F)cc3)n2)cc1,–,inactive: -2.69%
CCN(CC)S(=O)(=O)c1ccc(C)c(NC(=O)CNc2cccc(S(=O)(=O)N3CCOCC3)c2)c1,"inconclusive [inhibitor, single point]",–
CCC(=O)Nc1ccc(-c2nnc(SCC(=O)N3CCCCC3)n2C)cc1,–,inactive: -2.02%
CCCCNC(=O)c1sc(=S)n2c1[nH]c(=O)c1ccccc12,"inconclusive [inhibitor, partial curve]",–
Cc1ccc(NC(=O)CN2C(=O)c3ccccc3S2(=O)=O)c(C)c1,–,inactive: 28.8%
CCOc1ccc(NC(=O)c2sc3nc4c(cc3c2N)CN(Cc2ccccc2)CC4)cc1,"inconclusive [inhibitor, single point]",–
CCc1nc2c(OCc3ccc(Cl)cc3)cccn2c1N(C)C(=O)C1CC1,"inconclusive [inhibitor, single point]",–
CCCCCCc1nc2nc(Cl)c(Cl)nc2[nH]1,active: 8.2 µM,–
OC(c1ccccc1)C1CN(Cc2ccccc2)CCC1(O)c1ccccc1 (centres undefined),"inconclusive [inhibitor, partial curve]",–
Cc1ccc(-n2nc(C(=O)Nc3ccc(Br)cc3C)c(=O)n(C)c2=O)cc1,–,inactive: -15.2%
CN(Cc1ccco1)c1nc(-c2ccccc2Cl)nc2ccccc12,–,inactive: -16.5%
Cc1cnc(C)c(-c2cc(F)cc3c2OC(CNC(=O)c2cc(Cl)ccc2F)C3)n1 (centres undefined),–,inactive: -9.3%
Cc1ccc(Cn2ccnc2SCC(=O)Nc2ccccc2C(F)(F)F)cc1,–,inactive: 5.43%

SMILES,Potency,"activity change, negative = growth inhibition"
CN(Cc1ccsc1)C(=O)CCc1nnc(CCCc2ccccc2)o1,"inconclusive [inhibitor, single point]",–
CCCn1c2ccccc2c2cnn(CC(=O)NCc3ccc(OC)cc3)c(=O)c21,"inconclusive [inhibitor, single point]",–
Cc1ccc(CNC(=O)NC23CC4CC(CC(C4)C2)C3)cc1,"inconclusive [inhibitor, single point]",–
CCC(C)C(=O)Nc1nnc(CCc2ccccc2)s1 (centres undefined),"inconclusive [inhibitor, single point]",–
CC1CCCCN1Cc1nc2c(c(=O)n(C)c(=O)n2C)n1CCCc1ccccc1 (centres undefined),"inconclusive [inhibitor, partial curve, poor fit]",–
Fc1ccc2c(c1)C(c1ccncc1)=NNC(c1ccc(Br)cc1)=N2,"inconclusive [inhibitor, partial curve]",–
COc1ccc(OC)c(NC(=O)CN(c2ccc(OC)c(Cl)c2)S(C)(=O)=O)c1,"inconclusive [inhibitor, single point]",–
O=C(COC(=O)c1cc(S(=O)(=O)N2CCCCC2)ccc1N1CCOCC1)c1ccc(Cl)cc1,"inconclusive [inhibitor, single point]",–
CN(C)c1ccc(/C=N/NC(=O)C2COc3ccccc3O2)o1 (centres undefined),–,inactive: -13.6%
CC1(Oc2ccc(Cl)cc2)CCN(Cc2ccc(-c3ccccn3)cc2)C1 (centres undefined),"inconclusive [inhibitor, single point]",–
CC(C)Nc1nc2nonc2nc1Nc1ccccc1,"inconclusive [inhibitor, single point]",–
C/C=C/c1ccc(OCC(=O)N2CCc3cc(OC)c(OC)cc3C2)c(OC)c1,active: 23.1 µM,–
Cc1ccc(NC(=O)CNc2cc(S(=O)(=O)N3CCOCC3)ccc2NCC2CCCO2)cc1F (centres undefined),"inconclusive [inhibitor, partial curve]",–
COc1ccccc1CNC(=O)C1CCN(S(=O)(=O)c2ccc3[nH]c(=O)ccc3c2)CC1,–,inactive: -16.9%
COCC(C)NC(=O)C(C)N1c2cccc3cccc(c23)S1(=O)=O (centres undefined),–,inconclusive: -31.5% [inhibitor]
CCOC(=O)C1=NOC2(C1)C(=O)Nc1ccc(OC)cc12 (centres undefined),–,inactive: -11.8%
CCc1nn2c(N)c(/C=C3\C=Nc4ccccc43)c(=O)nc2s1,"inconclusive [inhibitor, partial curve]",–
Cc1ccccc1Cn1ccc(NC(=O)c2cnn3c(C(F)(F)F)cc(-c4ccco4)nc23)n1,active: 14.6 µM,–
CCOc1ccc(N2CC(C(=O)NCc3ccc4c(c3)OCO4)CC2=O)cc1 (centres undefined),–,inactive: -0.0883%
CCn1cc(/C=C(\NC(=O)c2ccccc2Cl)C(=O)N2CCN(C)CC2)c2ccccc21,"inconclusive [inhibitor, partial curve]",–
CCCN1C(=O)/C(=C/c2ccccc2OCc2ccc(C(=O)O)cc2)NC1=S,–,inactive: -17%
COc1ccc(CNC(=O)C2Cc3c(-c4cccc(C(C)=O)c4)ccnc3O2)cc1OC (centres undefined),"inconclusive [inhibitor, single point]",–
